{"source": "PubChem BioAssay AID488969", "about": "(Vanderbilt High Throughput Screening Facility, 2010)", "note": "The full ranking holds about 110,000 compounds; the median of “z-score” is about -0.1, and the highest 2% start at about 2. The list shows a part of the results."}
{"biological_target": "Metabotropic glutamate receptor 8 (Rattus norvegicus) (UniProt P70579)", "sequence (P70579 whole entry, looked up)": "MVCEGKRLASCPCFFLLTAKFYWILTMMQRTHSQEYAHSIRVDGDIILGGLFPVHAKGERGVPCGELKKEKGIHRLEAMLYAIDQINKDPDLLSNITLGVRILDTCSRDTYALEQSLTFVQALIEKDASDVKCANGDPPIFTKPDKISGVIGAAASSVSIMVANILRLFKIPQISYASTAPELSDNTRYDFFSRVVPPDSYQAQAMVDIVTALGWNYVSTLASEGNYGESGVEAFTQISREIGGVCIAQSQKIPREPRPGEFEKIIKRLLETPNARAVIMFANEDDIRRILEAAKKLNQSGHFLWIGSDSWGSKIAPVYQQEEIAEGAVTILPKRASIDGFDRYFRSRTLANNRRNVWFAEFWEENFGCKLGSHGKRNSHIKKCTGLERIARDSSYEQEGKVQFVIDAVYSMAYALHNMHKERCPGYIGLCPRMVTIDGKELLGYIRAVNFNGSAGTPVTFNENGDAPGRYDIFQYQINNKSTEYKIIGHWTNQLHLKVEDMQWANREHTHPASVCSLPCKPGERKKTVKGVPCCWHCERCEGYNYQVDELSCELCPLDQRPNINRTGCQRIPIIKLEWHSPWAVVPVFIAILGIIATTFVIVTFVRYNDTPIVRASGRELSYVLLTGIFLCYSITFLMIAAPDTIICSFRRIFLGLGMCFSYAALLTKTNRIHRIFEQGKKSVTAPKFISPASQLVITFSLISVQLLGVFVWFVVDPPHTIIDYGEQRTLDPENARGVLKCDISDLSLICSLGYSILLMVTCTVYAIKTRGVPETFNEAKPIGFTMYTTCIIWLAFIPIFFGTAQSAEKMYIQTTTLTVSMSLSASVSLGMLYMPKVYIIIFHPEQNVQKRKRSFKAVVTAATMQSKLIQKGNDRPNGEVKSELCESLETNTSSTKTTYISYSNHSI", "assay": "rat mGluR8 modulators via GIRK flux, primary screen, cell-based, thallium flux, HTS (AID 488969)", "conditions": "HEK293 rat mGluR8, GIRK (G protein-gated inwardly rectifying potassium channel) thallium flux, FluoZin2; at 10 µM; stronger effect = higher value; submaximal glutamate (EC20) added with thallium"}
{"molecule": "Cc1ccn2c(NC3CCCCC3)c(C)nc2c1", "z-score": -0.312}
{"molecule": "CCOC(=O)N1CCN(Cc2nc(N)nc(Nc3ccc(OCC)cc3)n2)CC1", "z-score": -0.27}
{"molecule": "CCOc1ccccc1C1NC(=O)NC(C)=C1C(=O)OC1CCCC1C", "note": "(stereo not drawn)", "z-score": -0.134}
{"molecule": "CCOC(=O)C1CCN(Cc2ccc(Cl)c(Cl)c2)CC1", "z-score": 0.132}
{"molecule": "CCC(=O)N(CCCN(C)C)c1nc(-c2cc(OC)ccc2OC)cs1", "z-score": 1.6}
{"molecule": "COc1ccc2[nH]c3c(NCCCN4CCCC4=O)ncnc3c2c1", "z-score": -0.439}
{"molecule": "COC(=O)c1[nH]c2ccccc2c1NC(=O)C(C)N1CCN(C(=O)c2ccco2)CC1", "note": "(stereo not drawn)", "z-score": -0.0506}
{"molecule": "Cc1ccc(NC(=O)CC2S/C(=N/N=C/C=C/c3ccccc3)NC2=O)cc1Cl", "note": "(stereo not drawn)", "z-score": -0.251}
{"molecule": "CCNC(=S)NNC(=O)c1csc(C(C)C)c1", "z-score": -0.354}
{"molecule": "CC(=O)N1N=C(c2ccncc2)OC12CCCCCC2", "z-score": 0.0573}
{"molecule": "Cc1cc(C)n2c(SCC(=O)N3CCN(S(=O)(=O)c4ccc(Cl)cc4)CC3)nnc2n1", "z-score": -0.165}
{"molecule": "O=C(Nc1ccccc1Cl)ON=C1c2ccccc2-c2ccccc21", "z-score": 0.0477}
{"molecule": "CC/C(C)=N/Nc1cccc([N+](=O)[O-])c1", "z-score": 0.117}
{"molecule": "O=C(CSc1nnc(-c2cccs2)n1Cc1ccco1)c1ccc2c(c1)OCO2", "z-score": -0.813}
{"molecule": "O=c1[nH]c(CN2CCN(Cc3ccccc3)CC2)nc2sc3c(c12)CCC3", "z-score": -0.568}
{"molecule": "CC(=O)c1cccc(NC(=S)NCCCCc2ccccc2)c1", "z-score": -0.454}
{"molecule": "CCOC(=O)c1cc2sc(C)cc2n1C(C)C(=O)OCC", "note": "(stereo not drawn)", "z-score": -1.32}
{"molecule": "COC(=O)C1=C(C)N(c2ccccc2)/C(=C/c2cccs2)C1=O", "z-score": 1.34}
{"molecule": "Cc1noc(C)c1COc1cccc(C(=O)Oc2ccc3c(c2)OCO3)c1", "z-score": -1.41}
{"molecule": "O=C(NCCc1ccccc1)c1ccc(OCCOc2ccccc2)cc1", "z-score": 0.233}
{"molecule": "COc1ccccc1S(=O)(=O)Cc1ccc(C(=O)NC2CCCCC2)o1", "z-score": -0.107}
{"molecule": "CCOc1ccc(/C(O)=C2/C(=O)C(=O)N(CCN(C)C)C2c2ccccc2)cc1Cl", "note": "(stereo not drawn)", "z-score": -0.211}
{"molecule": "COCCNC(=O)C(OC(=O)c1ccco1)c1ccccc1OC", "note": "(stereo not drawn)", "z-score": -0.951}
{"molecule": "c1coc(-c2nc(-c3ccco3)c(-c3ccco3)nc2-c2ccco2)c1", "z-score": -0.254}
{"molecule": "O=S(=O)(c1ccc(C2=CSC3=NCCN23)cc1)N1CCOCC1", "z-score": 0.287}
{"molecule": "Fc1ccc(Cn2nnc(-c3ccc(CN4CCOCC4)cc3)n2)cc1", "z-score": -0.256}
{"molecule": "CS(=O)(=O)NCCCNc1c(Cl)cccc1[N+](=O)[O-]", "z-score": -0.0993}
{"molecule": "CN(C)C(=O)c1cc(Br)ccc1Cl", "z-score": -0.362}
{"molecule": "CN1CCN(c2nc(C#N)cc(-c3ccccc3)n2)CC1", "z-score": 0.245}
{"molecule": "O=C(Nc1nncs1)c1ccc(N2C(=O)C3C4C=CC(C4)C3C2=O)cc1", "note": "(stereo not drawn)", "z-score": 0.679}
{"molecule": "O=C(Nc1nc2n(n1)C(c1ccccc1)C=C(c1ccccc1)N2)c1ccco1", "note": "(stereo not drawn)", "z-score": -0.857}
{"molecule": "O=c1[nH][nH]c(C(F)(F)F)c1C=Nc1ccc(Cl)cc1", "z-score": 0.158}
{"molecule": "C=CCNC(=O)c1ccncc1", "z-score": -0.272}
{"molecule": "Cc1cc(C)cc(NS(=O)(=O)c2ccc3[nH]c(=O)[nH]c3c2)c1", "z-score": 0.711}
{"molecule": "Nc1nnc(CC(=O)N2CCCCC2)s1", "z-score": 0.48}
{"molecule": "N#Cc1c(NC(=O)c2cc(-n3cnnc3)ccc2Cl)sc2c1CCCC2", "z-score": -0.401}
{"molecule": "COC(=O)C1NN=C(C(=O)c2ccccc2)C1c1ccccc1", "note": "(stereo not drawn)", "z-score": -0.624}
{"molecule": "N#CCSc1nnc(-c2ccccc2)c(-c2ccccc2)n1", "z-score": -0.91}
{"molecule": "Cc1ccc(C)n1-n1cnc2sc3c(c2c1=O)CCCCC3", "z-score": -0.178}
{"molecule": "Cc1ccc2cc(C)c3nnc(SCC(=O)c4cccs4)n3c2c1C", "z-score": -0.448}
{"molecule": "CCc1ccc(C2(O)CC(C(F)(F)F)=NN2C(=O)Cc2ccc([N+](=O)[O-])cc2)cc1", "note": "(stereo not drawn)", "z-score": -0.289}
{"molecule": "Cc1ccccc1CSc1nnc(-c2cccs2)n1Cc1ccco1", "z-score": -1.02}
{"molecule": "CCN(CC)c1ccc(C2C3CCCCC3(O)CCN2CC(=O)N2CCCCC2)cc1", "note": "(stereo not drawn)", "z-score": -0.0629}
{"molecule": "CC(=O)/C(=N\\Nc1ccc(Cl)cc1Cl)Sc1nnc(-c2ccccc2)n1-c1ccccc1", "z-score": -0.235}
{"molecule": "Cc1onc(-c2ccccc2)c1C(=O)NCc1cccs1", "z-score": 0.654}
{"molecule": "O=C1Nc2ccc([N+](=O)[O-])cc2C1(O)N1CCCCCC1", "note": "(stereo not drawn)", "z-score": 0.0674}
{"molecule": "O=C(NN1C(=O)C2C3C=CC(C4CC34)C2C1=O)c1cccc(Cl)c1", "note": "(stereo not drawn)", "z-score": -0.529}
{"molecule": "COC(=O)Cc1ccc(NC(=S)N2CCN(c3cccc(O)c3)CC2)cc1", "z-score": -0.238}
{"molecule": "Cc1ccc(/C=N/NC(=O)Cn2nccc2C)o1", "z-score": -0.0618}
{"molecule": "CNC(=O)C1=C(C)Nc2nc3ccccc3n2C1c1cccc(OC)c1", "note": "(stereo not drawn)", "z-score": -0.775}
{"molecule": "Cc1ccc(OCc2nc(-c3ccc(Cl)cc3)n[nH]2)cc1", "z-score": 0.00698}
{"molecule": "COc1ccccc1CNC(=O)c1cccs1", "z-score": -0.436}
{"molecule": "O=C(CCN1C(=O)C2C3C=CC(C3)C2C1=O)Nc1ccc(F)cc1", "note": "(stereo not drawn)", "z-score": -0.00554}
{"molecule": "O=C(O)/C=C\\C(=O)Nc1ccccc1C#Cc1ccc(Br)cc1", "z-score": -0.569}
{"molecule": "COc1ccc(OC)c(NC(=O)CS(=O)(=O)c2ccccc2)c1", "z-score": 0.415}
{"molecule": "NNc1nc2c(Cl)c(Cl)ccc2s1", "z-score": -0.414}
{"molecule": "O=C(CSc1nnc(-c2ccncc2)n1CCc1ccccc1)NCc1ccccc1", "z-score": -0.255}
{"molecule": "COc1ccc(C(=O)/C=C2/c3ccccc3CC(C)(C)N2C)cc1OC", "z-score": -0.481}
{"molecule": "CCCc1cc(=O)oc2c(CN3CCCC3)c(O)c(Cl)cc12", "z-score": -0.219}
{"molecule": "CN(C)/C=N/c1c(C#N)nnn1Cc1ccccc1", "z-score": 1.84}
{"molecule": "Cc1ccc(Cn2cccc(NC(=O)NCc3ccccc3)c2=O)cc1", "z-score": -0.0634}
{"molecule": "Cc1cc(=O)[nH]c(SCC(=O)Nc2nnc(CC(C)C)s2)n1", "z-score": -1.24}
{"molecule": "CC(CCO)Nc1nc2c(c(=O)n(C)c(=O)n2C)n1Cc1cccc(Br)c1", "note": "(stereo not drawn)", "z-score": -0.171}
{"molecule": "Cc1ccc(S(=O)(=O)NCCC(=O)Nc2nnc(C)s2)cc1", "z-score": -0.149}
{"molecule": "O=C(CCc1c[nH]c2ccccc12)NCc1ccc2c(c1)OCO2", "z-score": -0.143}
{"molecule": "COC(=O)c1cc(-c2ccccc2)on1", "z-score": -1.87}
{"molecule": "Cc1cc(C)cc(C(=O)OCC(=O)Nc2cccc(S(=O)(=O)NC3=NCCCCC3)c2)c1", "z-score": 0.0544}
{"molecule": "CCCCOC(=O)CSc1nnc(-c2ccc(Cl)cc2Cl)o1", "z-score": -2.67}
{"molecule": "CCCn1c(=O)[nH]c(=O)c2c1nc(-c1ccc3c(c1)OCCO3)n2CCN1CCOCC1", "z-score": 1.07}
{"molecule": "CC(=O)c1ccc(NC(=S)N2CCN(CCN3C(=O)c4cccc5cccc(c45)C3=O)CC2)cc1", "z-score": -0.572}
{"molecule": "COc1ccc(NC(=O)NCc2ccncc2)cc1", "z-score": -0.208}
{"molecule": "CCCCOC(=O)Nc1cccc(Cl)c1C", "z-score": 0.0745}
{"molecule": "O=C(NNC(=O)c1cc(-c2ccccc2)nc2ccccc12)Nc1cccc(Cl)c1", "z-score": -0.263}
